Results reported in patent US20250019377A1 (JACOBIO PHARMACEUTICALS CO., LTD, priority 2021, published 2025).

Key:
[1] = system: p-ERK in AGS cells (K-Ras G12D); assay: Phospho-ERK1/2(THR202/TYR204) HTRF assay, AGS; format: cell-based; details: Homo sapiens, 2 h, 2 hours incubation
[2] = molecular target: T1, K-Ras G12C (Homo sapiens, UniProt P01116, G12C); assay: biochemical
[3] = molecular target: T1, K-Ras G12C; assay: SOS1 catalyzed nucleotide exchange assay (GDP form K-Ras), K-Ras G12C; details: read-out: K-Ras G12C GDP Biochemical Activity (IC50)
[4] = system: p-ERK in NCI-H358 cells (K-Ras G12C); assay: Phospho-ERK1/2(THR202/TYR204) HTRF assay, NCI-H358; format: cell-based; details: Homo sapiens, 2 hours incubation
[5] = system: p-ERK in SW620 cells (K-Ras G12V); assay: Phospho-ERK1/2(THR202/TYR204) HTRF assay, SW620; format: cell-based; details: Homo sapiens, SW-620, 2 h, 2 hours incubation

## C#Cc1c(F)ccc2cc(O)cc(-c3ncc4c(N5C6CCOCC5C6)nc(OC[C@@]56CCCN5C[C@H](F)C6)nc4c3F)c12 (stereo partly drawn) [Compound 42, 4-(4-(3-oxa-7-azabicyclo[4.1.1]octan-7-yl)-8-fluoro-2-(((2R,7aS)-2-fluorotetrahydro-1H-pyrrolizin-7a(5H)-yl)methoxy)pyrido[4,3-d]pyrimidin-7-yl)-5-ethynyl-6-fluoronaphthalen-2-ol trifluoroacetic acid]
[1]
  IC50: 10.1 nM
[2]
  IC50: 556 nM
[3]
  IC50: 1.46 nM
[4]
  IC50: 7.37 nM
[5]
  IC50: 3.02 nM
